# Measured values reported in a collection of fitness landscapes (doi:10.1038/s41467-024-54723-y).
# The full ranking holds about 18,000 sequences; the median of “TetR repression strength (sort-seq, GFP reporter)” is about 0.23, and the highest 2% start at about 0.68. Some of the results follow.
# Target: TetR (class B, Tn10) (UniProt P04483)
# Experiment: TetR repression strength (sort-seq, GFP reporter) (relative to tetO2 = 1); higher = stronger repression
# Conditions: E. coli
# Procedure, shortened: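 Escherichia coli SIG10-MAX cells carried a low-copy plasmid library in which eight operator positions were randomized between a constitutive promoter and sfGFP, and TetR was expressed constitutively. After 5 h of growth at 37 °C in LB with 50 µg/mL chloramphenicol, 10^6 cells were FACS-sorted into 13 fluorescence bins, and each bin was Illumina-sequenced. Repression strength was the top bin index plus one minus the read-weighted mean bin, divided by the value for the unaltered operator. Across three independent transformations, only library members with ≥30 reads in every replicate and a CV ≤0.5 were averaged.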
# Sequence of UniProt P04483 (P04483 whole entry): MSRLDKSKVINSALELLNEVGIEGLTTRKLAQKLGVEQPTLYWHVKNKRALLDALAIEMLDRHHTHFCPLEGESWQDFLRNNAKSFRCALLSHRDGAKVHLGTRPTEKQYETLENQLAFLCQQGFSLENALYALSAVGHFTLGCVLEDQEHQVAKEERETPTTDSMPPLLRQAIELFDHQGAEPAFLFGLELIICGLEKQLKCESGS
row,Sequence,TetR repression strength
1,TCCCGGTTAGTTCGAGAGA,0.0821
2,TCCCTAACAGTGTCTGAGA,0.22
3,TCCCTTGTAGTGGGGGAGA,0.469
4,TCCCGGATAGTGTCGGAGA,0.141
5,TCCCAAAGAGTGCTTGAGA,0.267
6,TCCCAACGAGTGGGCGAGA,0.0899
7,TCCCTGTTAGTCGCTGAGA,0.263
8,TCCCGGGCAGTGAACGAGA,0.369
9,TCCCTAAAAGTATTTGAGA,0.322
10,TCCCGTCCAGTAATTGAGA,0.274
11,TCCCACTCAGTGTAAGAGA,0.318
12,TCCCGGGGAGTGACAGAGA,0.291
13,TCCCAAATAGTCTTCGAGA,0.0548
14,TCCCGTCTAGTTGATGAGA,0.278
15,TCCCTATTAGTAATTGAGA,0.416
16,TCCCATGTAGTTCTGGAGA,0.173
17,TCCCGGCAAGTGTACGAGA,0.198
18,TCCCAGTAAGTCAGGGAGA,0.254
19,TCCCCATAAGTTTGTGAGA,0.146
20,TCCCCGCGAGTTGGGGAGA,0.189
21,TCCCTGTAAGTCAGCGAGA,0.494
22,TCCCATGGAGTGGACGAGA,0.146
23,TCCCCGTCAGTGCTGGAGA,0.224
24,TCCCTGGAAGTGCAAGAGA,0.431
25,TCCCAAGCAGTGGCGGAGA,0.337
26,TCCCAGGTAGTAGAGGAGA,0.264

row,Sequence,TetR repression strength
1,TCCCGAGTAGTTAACGAGA,0.857
2,TCCCTACTAGTAGGGGAGA,0.387
3,TCCCATTAAGTCATCGAGA,0.194
4,TCCCCTAGAGTTGTGGAGA,0.344
5,TCCCGGGTAGTGTTGGAGA,0.276
6,TCCCGCCGAGTCCCGGAGA,0.317
7,TCCCCCTGAGTGAGGGAGA,0.127
8,TCCCAGGCAGTCTCAGAGA,0.106
9,TCCCTCCAAGTGGGGGAGA,0.446
10,TCCCCGCGAGTGGCTGAGA,0.193
11,TCCCCATTAGTAAGGGAGA,0.623
12,TCCCGAGCAGTCCACGAGA,0.138
13,TCCCGCGCAGTATTTGAGA,0.497
14,TCCCGGATAGTGGGGGAGA,0.255
15,TCCCGGATAGTACCGGAGA,0.0744
16,TCCCGAATAGTACAAGAGA,0.258
17,TCCCTGGAAGTCGGAGAGA,0.285
18,TCCCAGTAAGTAGCCGAGA,0.0168
19,TCCCGCACAGTTGATGAGA,0.00901
20,TCCCTTTTAGTGTGCGAGA,0.415
21,TCCCCAAGAGTTTTTGAGA,0.235
22,TCCCGCTAAGTCCGGGAGA,0.188
23,TCCCGGTTAGTAGAAGAGA,0.282
24,TCCCACCGAGTCTGGGAGA,0.222
25,TCCCGCATAGTGACGGAGA,0.099
26,TCCCTGTAAGTTGCCGAGA,0.181

row,Sequence,TetR repression strength
1,TCCCGATTAGTTAAGGAGA,0.332
2,TCCCCACGAGTCTGCGAGA,0.578
3,TCCCGCTGAGTGAGGGAGA,0.271
4,TCCCGGGTAGTTAGTGAGA,0.166
5,TCCCGTGTAGTAGGCGAGA,0.192
6,TCCCTACTAGTTCAAGAGA,0.426
7,TCCCTAGCAGTAGGGGAGA,0.189
8,TCCCTATCAGTGGCGGAGA,0.715
9,TCCCGGGGAGTGGACGAGA,0.228
10,TCCCTCCGAGTCCATGAGA,0.347
11,TCCCTTTCAGTTGATGAGA,0.235
12,TCCCAGCAAGTCAGAGAGA,0.211
13,TCCCATTAAGTGTAAGAGA,0.298
14,TCCCATTGAGTCTGGGAGA,0.404
15,TCCCCATAAGTGGGTGAGA,0.104
16,TCCCCGCCAGTCAGGGAGA,0.0339
17,TCCCACCTAGTGCGTGAGA,0.243
18,TCCCAGGTAGTGGGGGAGA,0.143
19,TCCCACGCAGTGGGGGAGA,0.188
20,TCCCGTAGAGTGCGAGAGA,0.199
21,TCCCCTACAGTACTGGAGA,0.218
22,TCCCTCAAAGTGCAAGAGA,0.537
23,TCCCCTTGAGTACCGGAGA,0.191
24,TCCCGTATAGTGGGAGAGA,0.281
25,TCCCTTTAAGTCTTCGAGA,0.377
26,TCCCAGGAAGTAAGGGAGA,0.147

row,Sequence,TetR repression strength
1,TCCCTGCGAGTCGCAGAGA,0.176
2,TCCCCTTCAGTATCGGAGA,0.28
3,TCCCCCGAAGTGGCAGAGA,0.412
4,TCCCCACAAGTCTGAGAGA,0.299
5,TCCCTCATAGTGGATGAGA,0.245
6,TCCCACGCAGTCTCGGAGA,0.172
7,TCCCGGGCAGTATATGAGA,0.359
8,TCCCAAACAGTACAGGAGA,0.418
9,TCCCCATTAGTGGGTGAGA,0.165
10,TCCCAGTGAGTCGAGGAGA,0.264
11,TCCCATTGAGTGGATGAGA,0.228
12,TCCCAAACAGTGAAGGAGA,0.445
13,TCCCATCAAGTCAGGGAGA,0.0465
14,TCCCCGGTAGTGCTGGAGA,0.422
15,TCCCAGGAAGTGGTCGAGA,0.237
16,TCCCGTGTAGTTCGCGAGA,0.357
17,TCCCTAGGAGTCTTGGAGA,0.263
18,TCCCCACCAGTGAGGGAGA,0.933
19,TCCCGAGAAGTGGATGAGA,0.298
20,TCCCACGAAGTGGTAGAGA,0.164
21,TCCCGTCGAGTTTTTGAGA,0.363
22,TCCCTAAGAGTGAGGGAGA,0.209
23,TCCCTCAGAGTCAATGAGA,0.25
24,TCCCGTAGAGTGTACGAGA,0.175
